Results published in paper PMC10896723.
Numbering of substitutions follows the chain as printed. These are yes or no findings as the source states them, for the method shown. Binding seen in cells or lysates may run through a third protein. Some binding calls cover weakened binding; strength is not graded here. Sequences can lack the tags named with a protein.

Protein sequences, listed by entry. Tags and fused reporters are not part of them.
UniProt P30153: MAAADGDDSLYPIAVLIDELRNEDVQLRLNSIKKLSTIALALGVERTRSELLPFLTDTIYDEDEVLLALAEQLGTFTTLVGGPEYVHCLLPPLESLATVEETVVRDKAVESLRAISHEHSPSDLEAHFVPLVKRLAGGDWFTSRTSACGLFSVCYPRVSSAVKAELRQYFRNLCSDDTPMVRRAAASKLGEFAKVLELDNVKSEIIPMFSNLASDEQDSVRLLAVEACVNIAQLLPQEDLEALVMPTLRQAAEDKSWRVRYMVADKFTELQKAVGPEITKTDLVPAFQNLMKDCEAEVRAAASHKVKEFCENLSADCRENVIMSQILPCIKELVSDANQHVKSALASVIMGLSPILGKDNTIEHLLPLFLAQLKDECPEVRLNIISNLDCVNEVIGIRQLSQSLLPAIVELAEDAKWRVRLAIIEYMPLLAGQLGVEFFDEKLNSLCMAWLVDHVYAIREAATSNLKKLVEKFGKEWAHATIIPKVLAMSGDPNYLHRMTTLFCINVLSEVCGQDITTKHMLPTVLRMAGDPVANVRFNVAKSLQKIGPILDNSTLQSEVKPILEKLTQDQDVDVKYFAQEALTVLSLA
UniProt Q8K1M6: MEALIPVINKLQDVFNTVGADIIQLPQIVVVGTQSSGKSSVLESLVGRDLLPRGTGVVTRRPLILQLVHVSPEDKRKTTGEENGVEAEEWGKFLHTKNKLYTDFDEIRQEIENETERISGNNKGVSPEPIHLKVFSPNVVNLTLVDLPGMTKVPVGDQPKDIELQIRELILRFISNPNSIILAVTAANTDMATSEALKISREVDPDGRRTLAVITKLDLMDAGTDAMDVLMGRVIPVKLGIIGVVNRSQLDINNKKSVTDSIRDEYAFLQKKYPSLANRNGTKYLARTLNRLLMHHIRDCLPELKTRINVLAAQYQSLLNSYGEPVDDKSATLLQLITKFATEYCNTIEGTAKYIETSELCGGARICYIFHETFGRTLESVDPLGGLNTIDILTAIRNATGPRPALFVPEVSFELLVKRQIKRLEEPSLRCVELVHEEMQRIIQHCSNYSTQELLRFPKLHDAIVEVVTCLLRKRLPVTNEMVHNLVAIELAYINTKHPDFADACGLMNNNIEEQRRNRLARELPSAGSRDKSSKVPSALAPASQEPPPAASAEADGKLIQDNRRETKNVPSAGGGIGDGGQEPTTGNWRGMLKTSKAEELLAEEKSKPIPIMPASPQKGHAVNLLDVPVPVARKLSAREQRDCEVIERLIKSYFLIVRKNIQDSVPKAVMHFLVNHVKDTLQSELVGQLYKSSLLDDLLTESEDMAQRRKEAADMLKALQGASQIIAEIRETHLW
UniProt Q96KP1: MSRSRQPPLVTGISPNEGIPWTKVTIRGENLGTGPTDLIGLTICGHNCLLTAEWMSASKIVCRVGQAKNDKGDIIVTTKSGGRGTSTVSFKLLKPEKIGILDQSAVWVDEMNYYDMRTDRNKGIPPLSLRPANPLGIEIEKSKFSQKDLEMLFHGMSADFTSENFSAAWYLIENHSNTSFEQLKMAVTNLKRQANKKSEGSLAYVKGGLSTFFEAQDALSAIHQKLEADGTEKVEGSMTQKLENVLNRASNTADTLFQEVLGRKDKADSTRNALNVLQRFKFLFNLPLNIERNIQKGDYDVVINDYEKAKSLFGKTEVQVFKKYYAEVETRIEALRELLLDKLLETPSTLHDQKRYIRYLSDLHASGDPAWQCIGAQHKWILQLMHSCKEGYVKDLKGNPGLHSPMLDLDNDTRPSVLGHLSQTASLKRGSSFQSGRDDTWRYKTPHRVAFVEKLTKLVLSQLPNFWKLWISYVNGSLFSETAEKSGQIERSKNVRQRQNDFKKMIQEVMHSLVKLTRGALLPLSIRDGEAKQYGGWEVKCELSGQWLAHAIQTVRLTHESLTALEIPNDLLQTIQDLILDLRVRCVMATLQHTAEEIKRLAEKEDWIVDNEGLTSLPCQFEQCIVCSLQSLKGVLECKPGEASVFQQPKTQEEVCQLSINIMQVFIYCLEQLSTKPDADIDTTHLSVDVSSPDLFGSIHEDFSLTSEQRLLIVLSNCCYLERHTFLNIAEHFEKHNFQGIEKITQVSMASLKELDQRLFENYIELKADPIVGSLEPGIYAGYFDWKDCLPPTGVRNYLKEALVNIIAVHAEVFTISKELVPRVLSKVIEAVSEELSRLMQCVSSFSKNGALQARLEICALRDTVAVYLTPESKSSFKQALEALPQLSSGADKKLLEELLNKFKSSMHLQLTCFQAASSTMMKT

Tests used:
Flag-RalA^WT [1] = molecular target: T1, Flag-RalA^WT (UniProt P11233); assay: pull-down; Flag-RalA^WT beads loaded in vitro with 200 μM GDP (1 h, 25 °C), then incubated with GFP-PP2Aa HEK293T lysate at 4 °C overnight; only the target purified
T1 sequence: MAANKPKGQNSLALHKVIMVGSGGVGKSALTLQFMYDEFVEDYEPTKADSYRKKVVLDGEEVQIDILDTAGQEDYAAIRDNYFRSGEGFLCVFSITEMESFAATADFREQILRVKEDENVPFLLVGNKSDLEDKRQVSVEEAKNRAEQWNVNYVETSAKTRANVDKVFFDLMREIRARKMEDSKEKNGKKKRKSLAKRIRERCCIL

Flag-RalA^G23V = molecular target: T2, Flag-RalA^G23V (UniProt P11233); assay: co-IP; co-transfected HEK293T cells; lysis buffer or Drp1 buffer; 0.5-1 mg protein with Anti-Flag M2 Affinity gel at 4 °C overnight
T2 sequence: T1 sequence with G23V

Flag-RalA^WT [2] = molecular target: T1, Flag-RalA^WT; assay: pull-down; Flag-RalA^WT beads loaded in vitro with 2 mM GTPγS (1 h, 25 °C), then incubated with GFP-PP2Aa HEK293T lysate at 4 °C overnight; only the target purified
Flag-RalA^WT [3] = molecular target: T1, Flag-RalA^WT; assay: pull-down; Flag-RalA^WT from HEK293T lysate held on Anti-Flag M2 Affinity gel, washed, incubated with GFP-PP2Aa HEK293T lysate at 4 °C overnight; lysis buffer 25 mM Tris-HCl, 130 mM NaCl, 10 mM MgCl2, 10% glycerol, 0.5% NP-40; only the target purified
Flag-RalA^WT [4] = molecular target: T1, Flag-RalA^WT; assay: co-IP; co-transfected HEK293T cells; lysis buffer or Drp1 buffer; 0.5-1 mg protein with Anti-Flag M2 Affinity gel at 4 °C overnight
Flag-RalA^S28N = molecular target: T3, Flag-RalA^S28N (UniProt P11233); assay: as above
T3 sequence: T1 sequence with S28N

Row | binding (Flag-RalA^G23V) | binding (Flag-RalA^WT [2]) | binding (Flag-RalA^WT [3]) | binding (Flag-RalA^WT [4]) | binding (Flag-RalA^S28N) | Substance | binding (Flag-RalA^WT [1])
1 | binds | binds | binds |  |  | GFP-PP2Aa (from UniProt P30153 1-589) | no binding (condition: RalA loaded with GDP (200 μM))
2 | binds |  |  | binds | binds | Myc-Drp1 (from UniProt Q8K1M6 1-736) | 
3 | binds |  |  |  | no binding | Sec5 (from UniProt Q96KP1 1-924) | 
